Laboratory results published in publication PMC4336329 (PLoS ONE, 2015).
The campaign covered roughly 310,000 compounds. About 14,000 (4.5%) showed an effect of 50% or more. Effects have a minus sign here. Some of the results follow.
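Further: peak tail current of the secondary pulse compared with the same well before compound.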

Each molecule was assayed against human ether-à-go-go-related gene (hERG) potassium channel (human, UniProt Q12809) (assay: primary screen, population patch clamp on CHO cells stably expressing hERG).
human ether-à-go-go-related gene (hERG) potassium channel, sequence (Q12809 whole entry, looked up): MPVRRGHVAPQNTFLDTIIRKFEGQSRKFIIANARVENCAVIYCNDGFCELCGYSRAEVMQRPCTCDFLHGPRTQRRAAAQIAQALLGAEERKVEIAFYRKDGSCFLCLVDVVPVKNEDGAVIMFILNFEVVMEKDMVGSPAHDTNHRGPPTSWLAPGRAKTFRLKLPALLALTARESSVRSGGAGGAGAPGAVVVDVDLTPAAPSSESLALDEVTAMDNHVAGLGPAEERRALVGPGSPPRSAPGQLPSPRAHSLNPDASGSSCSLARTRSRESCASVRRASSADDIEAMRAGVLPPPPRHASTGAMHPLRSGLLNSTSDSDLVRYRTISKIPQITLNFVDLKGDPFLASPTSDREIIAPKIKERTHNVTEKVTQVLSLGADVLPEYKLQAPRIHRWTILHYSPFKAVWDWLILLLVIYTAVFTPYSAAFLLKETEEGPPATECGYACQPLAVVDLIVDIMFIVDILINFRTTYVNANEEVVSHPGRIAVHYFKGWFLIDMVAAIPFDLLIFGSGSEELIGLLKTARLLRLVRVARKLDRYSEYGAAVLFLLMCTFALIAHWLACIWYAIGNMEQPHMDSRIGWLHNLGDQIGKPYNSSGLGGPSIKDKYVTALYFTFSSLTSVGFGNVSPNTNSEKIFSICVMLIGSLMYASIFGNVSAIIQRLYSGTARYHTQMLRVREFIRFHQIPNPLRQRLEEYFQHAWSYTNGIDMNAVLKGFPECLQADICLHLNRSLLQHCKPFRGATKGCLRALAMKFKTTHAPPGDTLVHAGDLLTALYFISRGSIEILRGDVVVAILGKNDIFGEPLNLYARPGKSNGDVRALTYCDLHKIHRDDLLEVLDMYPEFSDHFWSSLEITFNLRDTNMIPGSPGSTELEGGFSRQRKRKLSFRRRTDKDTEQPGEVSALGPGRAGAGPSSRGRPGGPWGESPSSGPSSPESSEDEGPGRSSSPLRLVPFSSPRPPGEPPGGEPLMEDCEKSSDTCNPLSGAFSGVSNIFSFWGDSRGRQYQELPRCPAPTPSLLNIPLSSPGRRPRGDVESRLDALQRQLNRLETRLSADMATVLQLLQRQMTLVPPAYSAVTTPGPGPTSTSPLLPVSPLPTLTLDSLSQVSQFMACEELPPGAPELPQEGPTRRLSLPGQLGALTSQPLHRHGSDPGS
With `C[C@@H]1CCC[C@@]2(O[C@@H](CCO)C[C@@H](O)[C@@H]2O)O1` the “hERG current change (%, negative = inhibition) at 10uM” value was 2.06%.
With `CCn1c(=O)n(CC)c2cc(N3CCCC3)c(NC(=O)c3cccc(Cl)c3)cc21` the “hERG current change (%, negative = inhibition) at 10uM” value was 3.07%.
`COc1ccc(CCn2c(O)c(C=Nc3ccccc3F)c(=O)[nH]c2=O)cc1OC` was tested, and the “hERG current change (%, negative = inhibition) at 10uM” value was 20.3%.
`CNc1nc(N)c([N+](=O)[O-])c(NCc2ccccc2)n1` was tested, and the “hERG current change (%, negative = inhibition) at 10uM” value was -1.09%.
With `CC1NC(=O)NC1CCCCC(=O)O` (stereo not shown) the “hERG current change (%, negative = inhibition) at 10uM” value was -8.16%.
`CCC(Cc1ccccc1)NS(=O)(=O)c1ccc2c(c1)NC(=O)CO2` (stereo not shown) was tested, and the “hERG current change (%, negative = inhibition) at 10uM” value was -2.42%.
In the case of `CCC1(C)Cc2ccccc2-c2[nH][nH]c(=O)c21` (stereo not shown), the “hERG current change (%, negative = inhibition) at 10uM” value is reported as 22.7%.
For `CN(C)c1nc(SCC(=O)Nc2ccc(Cl)c(Cl)c2)nc(N2CCOCC2)n1`, the “hERG current change (%, negative = inhibition) at 10uM” value was -3.51%.
`CCC1(CC)C(=O)C2=C3C1[C@H](C(=O)OC)C=C(C(=O)OC)C[C@H]3[C@H]1C(=O)N(CC(=O)OC)C(=O)[C@H]1[C@H]2C` (stereo partly shown) was tested, and the “hERG current change (%, negative = inhibition) at 10uM” value was 5.84%.
`BrC(/C=N/N1CCN(Cc2ccccc2)CC1)=C/c1ccccc1` was tested, and the “hERG current change (%, negative = inhibition) at 10uM” value was -4%.
`CC(C)C(=O)OC1CCS(=O)(=O)c2sccc21` (stereo not shown) was tested, and the “hERG current change (%, negative = inhibition) at 10uM” value was 19.9%.
In the case of `O=C(O)C(=O)O.OC(CNCC1COc2ccccc2O1)COCc1cccs1` (stereo not shown), the “hERG current change (%, negative = inhibition) at 10uM” value is reported as -49.8%.
With `COc1ccc(Oc2cc(C)nc(Cl)n2)nn1` the “hERG current change (%, negative = inhibition) at 10uM” value was 21.3%.
In the case of `COc1ccc(C)cc1S(=O)(=O)NCC(c1cccnc1)N1CCc2ccccc2C1` (stereo not shown), the “hERG current change (%, negative = inhibition) at 10uM” value is reported as -25.3%.
`Cc1ccccc1OCC(=O)N/N=C/c1ccco1` was tested, and the “hERG current change (%, negative = inhibition) at 10uM” value was 13.3%.
With `COc1cc(C2CC(=O)N3CN(c4ccccc4C)CSC3=C2C#N)cc(OC)c1OC` (stereo not shown) the “hERG current change (%, negative = inhibition) at 10uM” value was 3.31%.
For `O=C(COC(=O)c1cccc(-n2cnnn2)c1)c1ccc(F)cc1`, the “hERG current change (%, negative = inhibition) at 10uM” value was -0.561%.
With `O=C(c1ccc2c3c(cccc13)CC2)C1CCCN(C(=O)c2ccc[n+]([O-])c2)C1` (stereo not shown) the “hERG current change (%, negative = inhibition) at 10uM” value was -18%.
`CC(NC(C)c1ccccc1Cl)C(=O)Nc1cccc(S(=O)(=O)N2CCCCC2)c1` (stereo not shown) was tested, and the “hERG current change (%, negative = inhibition) at 10uM” value was 1.12%.
With `CC(=O)NCc1ccc(S(=O)(=O)N/N=C/c2ccccc2)cc1` the “hERG current change (%, negative = inhibition) at 10uM” value was 18.7%.
For `CC(C)(C)c1cc(CN2CCN(CCO)CC2)cc(C(C)(C)C)c1O`, the “hERG current change (%, negative = inhibition) at 10uM” value was -19%.
`O=C1c2ccccc2C(O)(Cc2ccccc2)N1c1ccc2c(c1)OCO2` (stereo not shown) was tested, and the “hERG current change (%, negative = inhibition) at 10uM” value was 10.8%.
For `Cc1ccc[n+](CC2OCc3ccccc3CO2)c1.[Br-]`, the “hERG current change (%, negative = inhibition) at 10uM” value was 2.24%.
In the case of `COc1ccc(N2CCN(C(=O)c3ccc(Br)cc3)CC2)c([N+](=O)[O-])c1`, the “hERG current change (%, negative = inhibition) at 10uM” value is reported as -72.3%.
In the case of `COCCn1c(O)c(/C=N/NC(=O)CSC(=S)N2CCCC2)c(=O)[nH]c1=S`, the “hERG current change (%, negative = inhibition) at 10uM” value is reported as 7.28%.
For `CCSc1nnc(NC(=O)c2cnccn2)s1`, the “hERG current change (%, negative = inhibition) at 10uM” value was 11.5%.
For `CC1(C)Cc2nc3sc4c(N(CCO)CCO)nnnc4c3cc2CO1`, the “hERG current change (%, negative = inhibition) at 10uM” value was -3.74%.
`O=C(NC(=S)Nc1ccc(NC(=O)c2ccccc2)cc1)c1ccc(F)cc1` was tested, and the “hERG current change (%, negative = inhibition) at 10uM” value was 8.25%.
In the case of `COc1ccc(C(C(=O)NC2CCCCC2)N(C(=O)Cc2c[nH]c3ccccc23)c2ccccc2)cc1OC` (stereo not shown), the “hERG current change (%, negative = inhibition) at 10uM” value is reported as 9.86%.
With `Cc1ccc(S(=O)(=O)Nc2ccccc2N(C)S(=O)(=O)c2ccc(C)cc2)cc1` the “hERG current change (%, negative = inhibition) at 10uM” value was 0.237%.
For `COc1ccc(CC(=O)OCc2cc3cccc(C)c3[nH]c2=O)cc1`, the “hERG current change (%, negative = inhibition) at 10uM” value was -0.363%.
`CC(C)c1ccc(OCC(=O)Nc2cccc(C(=O)Nc3ccccc3C(=O)O)c2)cc1` was tested, and the “hERG current change (%, negative = inhibition) at 10uM” value was 24.3%.
`CCOc1ccc2oc(C(=O)N(CCOC)c3c(N)n(CC(C)C)c(=O)[nH]c3=O)c(C)c2c1` was tested, and the “hERG current change (%, negative = inhibition) at 10uM” value was -10.2%.
`COc1ccc(OC)c(N2C(=O)NC(=O)C3(Cc4cc(C)ccc4N(C)C3)C2=O)c1` (stereo not shown) was tested, and the “hERG current change (%, negative = inhibition) at 10uM” value was -5.52%.
`C=CCNc1nc(C(=O)OCC(=O)c2ccc(OC)cc2OC)cs1` was tested, and the “hERG current change (%, negative = inhibition) at 10uM” value was -3.88%.
With `O=c1[nH]cnc2scc(-c3ccccc3)c12` the “hERG current change (%, negative = inhibition) at 10uM” value was 17.2%.
With `O=C(CSc1ccc(Cl)cc1)Nc1ccc(-c2nc3ccccc3[nH]2)cc1` the “hERG current change (%, negative = inhibition) at 10uM” value was 7.22%.
For `Cc1nc2c(=O)n(C)c(=O)n(C)c2nc1Cl`, the “hERG current change (%, negative = inhibition) at 10uM” value was -7%.
In the case of `CC(=O)Nc1ccc(S(=O)(=O)Nc2cccc3cccnc23)cc1`, the “hERG current change (%, negative = inhibition) at 10uM” value is reported as -1.83%.
With `CCC(c1nnnn1C1CCCCC1)N1CCN(C2CCCC2)CC1.Cl` (stereo not shown) the “hERG current change (%, negative = inhibition) at 10uM” value was -3.77%.
In the case of `COc1ccc(-n2c(SCC(=O)Nc3cc(C)on3)nc3ccc(O)cc3c2=O)cc1OC`, the “hERG current change (%, negative = inhibition) at 10uM” value is reported as 12%.
In the case of `Cc1ccc(C)c(OCc2cc(C(=O)N(C)Cc3ccccn3)no2)c1`, the “hERG current change (%, negative = inhibition) at 10uM” value is reported as -8.55%.
In the case of `Cc1ccc(C(=O)NCCCNC(=O)Cc2ccc(Cl)cc2)cn1`, the “hERG current change (%, negative = inhibition) at 10uM” value is reported as -2.28%.
